Hit rate of the full screen: of about 410,000 compounds, about 260 (0.063%) were called active. This list was built around the results that the source calls inconclusive (neither active nor inactive); the mix of calls is not that of the screen. The call rests on the fitted dose curve; in most records, active means well fitted activation curve with a large enough effect; inconclusive means small, poorly fitted or top-dose-only effect; inactive means no such curve, though single readings can be large or run the other way. No potency is given beside an inconclusive call; the fits are too rough.
assay: qHTS for compounds that reverse cellular toxicity of Amyloid beta (A-beta) peptide in yeast: Primary Screen; details: yeast expressing A-beta42, growth rescue, OD600, 48 h; growth rescue: at 46.1 µM (top of the series), 0% DMSO, 100% iron-clioquinol control; further: nearly all actives have a fitted effect of over 55% in size
Summary of the method: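 Yeast A-beta toxicity model in growth medium with pinned compounds, 48 h at 30 C; growth read as absorbance at 600 nm. Normalized to FeCl3/clioquinol equimolar mix (positive) and DMSO (negative).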
Potency means the concentration at half of the fitted maximal effect; tags describe the fitted curve by direction and shape.

Structure (SMILES)	Potency
CN(NC(=O)c1ccc(Cl)cc1)c1cccc(Cl)n1	inconclusive [activator, partial curve, poor fit]
COc1ccc(C(CCc2cc(OC)c(OC)c(OC)c2)NC(C)=O)cc1 (stereo not drawn)	inconclusive [activator, full curve]
COc1ccc(CCNc2ncnc3sccc23)cc1OC	inactive
CSCCC(NS(=O)(=O)c1ccc(Cl)cc1)C(=O)OCc1cccc(Cl)c1 (stereo not drawn)	inconclusive [activator, single point]
CC(C)(C)C(=O)NC(=S)Nc1ccccn1	inconclusive [activator, single point]
Cc1nnc(NC(=O)c2ccc(S(=O)(=O)N(C)Cc3ccccc3)cc2)o1	inconclusive [activator, partial curve, poor fit]
CCN1CCN(C(c2ccccc2Cl)c2c(O)cc(C)n(CCOC)c2=O)CC1 (stereo not drawn)	inactive
Cc1ccc(S(=O)(=O)N2CCN(Cc3nc4ccc(C)cc4o3)CC2)c(C)c1	inconclusive [activator, partial curve, poor fit]
CC(C)OP(=O)(c1ccc(N(C)C)cc1)C(O)c1ccc(C(C)C)cc1 (stereo not drawn)	inconclusive [activator, single point]
CCOC(=O)N1CCN(C(=O)c2ccc(Cn3c(=S)[nH]c4ccc(Br)cc4c3=O)cc2)CC1	inactive
CCc1cc(-c2[nH]ncc2-c2ccc([N+](=O)[O-])cc2)c(O)cc1OC	inconclusive [activator, partial curve, poor fit]
COc1ccccc1CSc1nc2ccccc2[nH]1	inconclusive [activator, full curve, poor fit]
Cc1cc(C)cc(OCC(=O)O/N=C(\N)Cc2ccc([N+](=O)[O-])cc2)c1	inconclusive [activator, full curve, poor fit]
Cc1cc(C)c2c(CC(=O)Nc3ccccc3C(F)(F)F)coc2c1	inactive
Cc1ccc(C(=O)NC(=S)Nc2ccc(NC(=O)c3cccs3)cc2)cc1[N+](=O)[O-]	inconclusive [activator, partial curve, poor fit]
COc1ccccc1-c1csc(C(O)c2ccc(F)c(F)c2)n1 (stereo not drawn)	inconclusive [activator, partial curve, poor fit]
Cc1cc(C)c2c(CC(=O)N(Cc3ccc(Cl)cc3)Cc3ccco3)coc2c1	inactive
O=C(CCSc1ccccc1)Nc1nc2c(s1)CCCC2	inconclusive [activator, partial curve, poor fit]
O=C(OCc1ccc(Cl)c(Cl)c1)c1ccc[nH]1	inconclusive [activator, single point]
CC(C)(C)NC(=O)c1oc2ccccc2c1NC(=O)c1ccccc1F	inconclusive [activator, partial curve]
Cc1ccc(C)c(N2CCN(c3nccn4nc(-c5ccc(Br)cc5)cc34)CC2)c1	inactive

Structure (SMILES)	Potency
CCOc1ccccc1N(C(=O)c1snc(C(N)=O)c1N)C(C(=O)NCc1ccccc1)c1ccc(O)cc1 (stereo not drawn)	inactive
O=C(N/N=C/c1ccncc1)c1cccc(NC(=O)c2ccc(Cl)cc2)c1	inactive
O=C(Nc1nnc(-c2ccc3c(c2)CCCC3)o1)c1ccc(Cl)cc1Cl	inconclusive [activator, single point]
CC(C)(C)NC(=S)NC(=O)C12CC3CCC(CC(C3)C1)C2	inconclusive [activator, full curve, poor fit]
O=C(N/N=C/c1ccc(OC(=O)c2cccc(Br)c2)cc1)c1cccnc1	inconclusive [activator, single point]
OC(c1ccccc1)(c1ccccc1)C1CCN(C(=S)NC2CCCC2)CC1	inconclusive [activator, single point]
Cc1cc(C)cc(OCC(=O)NNC(=O)c2ccccn2)c1	inconclusive [activator, single point]
Cc1ccc([N+](=O)[O-])cc1-c1ccc(/C=C(\C#N)c2[nH]nc(N)c2C#N)o1	inconclusive [activator, partial curve, poor fit]
C/C(=N\NC(=O)c1ccc(O)cc1)c1ccc2c(c1)Nc1ccccc1S2	inconclusive [activator, partial curve]
COc1ccc(N2CCN(C(=O)c3ccccc3NS(=O)(=O)c3ccccc3)CC2)cc1	inconclusive [activator, partial curve, poor fit]
Cc1ccc(C)c(N2CCN(C(=O)CCC(=O)Nc3nnc(C(F)(F)F)s3)CC2)c1	inconclusive [activator, single point]
S=C(NCc1ccco1)Nc1ccccn1	inconclusive [activator, single point]
COCc1nnc(NC(=O)c2ccc(S(=O)(=O)N(CC(C)C)CC(C)C)cc2)o1	inconclusive [activator, single point]
CNC(=S)N/N=C(\C)c1ccc(N2CCOCC2)cc1	inconclusive [activator, single point]
O=C(COc1ccc(Cl)cc1Cl)OCC(=O)c1ccc[nH]1	inactive
O=C(CN1CCN(c2ccc(Cl)cc2)CC1)Nc1ccc(Cl)c(C(F)(F)F)c1	inconclusive [activator, partial curve, poor fit]
O=C(NCCC1=CCCCC1)C1CCN(C(=O)c2ccc(Br)cc2)CC1	inconclusive [activator, partial curve, poor fit]
CCCCc1ccc(NS(=O)(=O)N(C)C)cc1	inconclusive [activator, partial curve, poor fit]
O=C(Nc1ccc2c(c1)OCCO2)C(c1ccc(C(F)(F)F)cc1)n1c(=O)c(-c2cc3ccccc3[nH]2)nc2ccccc21 (stereo not drawn)	inconclusive [activator, partial curve]
COC(=O)C1=C(C)NC(C)=C(C(=O)OC)C1c1ccc(-c2cccc([N+](=O)[O-])c2)o1	inactive
O=C1C2C(c3ccccc3)(C(=O)N1c1ccc(Cl)cc1)C2(c1ccccc1)c1ccccc1 (stereo not drawn)	inconclusive [activator, full curve, poor fit]

Structure (SMILES)	Potency
O=C(Cc1ccc(Cl)cc1)Nc1ncc([N+](=O)[O-])s1	inactive
CC(C)(C)c1cc(-c2ccccc2)n[nH]1	inconclusive [activator, partial curve, poor fit]
CCC1CN(C(=O)Nc2cccc(C)c2)c2cc(C)ccc2O1 (stereo not drawn)	inconclusive [activator, single point]
Cc1nc(SCC(=O)Nc2ccccc2Cl)c2c(C)c(C)sc2n1	inconclusive [activator, single point]
COc1cc(C(c2nnnn2C(C)(C)C)N2CCN(c3nc4ccccc4s3)CC2)ccc1O (stereo not drawn)	inconclusive [activator, single point]
C=CCNC(=S)/N=c1/ccccn1CCC	inconclusive [activator, single point]
NC(=Nc1nc(-c2ccccn2)cc2ccccc12)c1ccccn1	inconclusive [activator, single point]
CCc1cccc(NC(=O)Cn2c(=O)n(-c3ccccc3C)c(=O)c3c2c2cc(C)ccc2n3C)c1	inactive
CCc1nnc(NC(=O)c2ccc(S(=O)(=O)N3CCCc4ccccc43)cc2)o1	inconclusive [activator, full curve, poor fit]
COc1ccc(C2=C(c3ccccc3)OC(OC)c3cc(F)ccc32)cn1 (stereo not drawn)	inconclusive [activator, partial curve]
O=C(COC(=O)c1ccc(-c2ccc([N+](=O)[O-])cc2)o1)NC(=O)NC1CCCCC1	inconclusive [activator, partial curve, poor fit]
Cc1cc(OCc2cc(C(=O)N(C)CC3CCOCC3)no2)cc(C)c1Cl	inconclusive [activator, single point]
C=C(C)C1CC=C(C)/C(=N\NC(=S)Nc2ccc(C)cc2)C1 (stereo not drawn)	inconclusive [activator, partial curve]
Cc1cc2nc(N3CCN(C(=O)c4ccco4)CC3)sc2cc1C	inactive
CC(C)(C)c1ccc(C(=O)N2CCN(CCNC(=O)C(=O)NCc3ccccc3)CC2)cc1	inconclusive [activator, single point]
COC(=O)c1ccccc1NC(=S)NC(=O)COc1ccc(C(C)C)cc1	inconclusive [activator, full curve]
Cc1ccc(Nc2cc(C)nc(-n3nc(C)cc3C)n2)cc1	inconclusive [activator, partial curve]
COCCn1nnnc1C(C(C)C)N(Cc1ccccc1)Cc1cc2cc(OC)ccc2[nH]c1=O (stereo not drawn)	inconclusive [activator, partial curve, poor fit]
O=C(Nc1ccc2c(c1)OCCO2)NC1CCCCC1	inconclusive [activator, partial curve, poor fit]
COc1cccc(CNC(=O)Cc2csc3nc(-c4ccccc4)cn23)c1	inconclusive [activator, partial curve, poor fit]
Cc1cccc(NC(=O)COc2ccccc2C(=O)NC(C)c2ccccc2)c1 (stereo not drawn)	inconclusive [activator, partial curve]

Source: PubChem BioAssay AID1347071 (National Center for Advancing Translational Sciences (NCATS), 2019)
